Drawing on paper PMC5700166, this text covers binding signal for 40 sequences.

The entries are a selection whose mix differs from that of the whole data set. The list includes weakly bound sequences.

This assay has as its target T1, GST-Ap-NF-kB RHD (UniProt A0A913YAJ5).
T1 sequence: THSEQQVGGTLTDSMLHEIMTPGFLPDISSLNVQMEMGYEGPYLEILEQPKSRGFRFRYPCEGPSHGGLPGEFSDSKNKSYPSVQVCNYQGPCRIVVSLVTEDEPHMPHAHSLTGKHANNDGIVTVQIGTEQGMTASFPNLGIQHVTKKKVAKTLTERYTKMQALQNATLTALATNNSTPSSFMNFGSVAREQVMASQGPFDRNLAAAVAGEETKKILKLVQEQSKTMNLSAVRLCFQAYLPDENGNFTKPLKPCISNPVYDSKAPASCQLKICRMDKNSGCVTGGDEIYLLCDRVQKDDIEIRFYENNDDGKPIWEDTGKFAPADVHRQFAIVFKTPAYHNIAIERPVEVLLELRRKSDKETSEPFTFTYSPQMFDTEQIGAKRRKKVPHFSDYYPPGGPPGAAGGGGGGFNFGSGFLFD
Nature of the assay: protein-binding microarray (PBM). Particulars: PBM: ~300 nM protein, 6 mM HEPES pH 7.8, 80 mM KCl, 0.5 mM EDTA, 0.5 mM EGTA, 6% glycerol, 35 ng/ul poly-dIdC, 1% milk, 1 h, room temperature; Ap Aiptasia and Nv Nematostella (sea anemones) / Co Capsaspora / Aq Amphimedon (sponge) / Dm Drosophila / Hu human; RHD is the Rel homology domain; high values mean tight binding; most listed sequences are background and not binding sites; double strand, one strand shown.
Consider “CCGATTAACATCAAGGAATGTCCTGATGTTAATCGGGTCTTGATTCGCTTGACGCTGCTG”, for which the binding signal is 0.153 z-score.
“CCGATTAACATCAAGGAGTTTCCTGATGTTAATCGGGTCTTGATTCGCTTGACGCTGCTG”: the binding signal was determined as 0.0302 z-score.
For the sequence “CCGATTAACATCAGAGAATTTCCTGATGTTAATCGGGTCTTGATTCGCTTGACGCTGCTG”, the binding signal was 0.15 z-score.
Next, “CCGATTAACATCACGGCATTTCCTGATGTTAATCGGGTCTTGATTCGCTTGACGCTGCTG”: 0.0612 z-score; “CCGATTAACATCAGGATTTGCCCTGATGTTAATCGGGTCTTGATTCGCTTGACGCTGCTG”: 0.945 z-score; “CCGATTAACATCAAGGAACTTCCTGATGTTAATCGGGTCTTGATTCGCTTGACGCTGCTG”: -0.315 z-score.
As for “CCGATTAACATCAAGGAATCTCCTGATGTTAATCGGGTCTTGATTCGCTTGACGCTGCTG”, the figure is -0.0796 z-score; as for “CCGATTAACATCAGGAATGTCCATGATGTTAATCGGGTCTTGATTCGCTTGACGCTGCTG”, -0.569 z-score.
Next, “CCGATTAACATCAAAAAATCTCCTGATGTTAATCGGGTCTTGATTCGCTTGACGCTGCTG”: 0.304 z-score; “CCGATTAACATCACGGAAAGTACTGATGTTAATCGGGTCTTGATTCGCTTGACGCTGCTG”: 0.343 z-score; “CCGATTAACATCACGGACTGTCCTGATGTTAATCGGGTCTTGATTCGCTTGACGCTGCTG”: 0.0815 z-score.
Regarding “CCGATTAACATCAAGGGGGTTTCTGATGTTAATCGGGTCTTGATTCGCTTGACGCTGCTG”, the binding signal was 9.41 z-score.
As for “CCGATTAACATCACGGACTTTCCTGATGTTAATCGGGTCTTGATTCGCTTGACGCTGCTG”, the figure is 0.705 z-score; as for “CCGATTAACATCACGGCTTTTCCTGATGTTAATCGGGTCTTGATTCGCTTGACGCTGCTG”, 0.195 z-score.
“CCGATTAACATCAGGAATTTTCATGATGTTAATCGGGTCTTGATTCGCTTGACGCTGCTG” had a binding signal of -0.376 z-score.
Next, “CCGATTAACATCAGAATTTCCGCTGATGTTAATCGGGTCTTGATTCGCTTGACGCTGCTG”: -0.211 z-score; “CCGATTAACATCAACAAAATTCCTGATGTTAATCGGGTCTTGATTCGCTTGACGCTGCTG”: 0.0616 z-score; “CCGATTAACATCATAATGGGAAATGATGTTAATCGGGTCTTGATTCGCTTGACGCTGCTG”: 0.905 z-score.
As for “CCGATTAACATCAAAAATCCGGTTGATGTTAATCGGGTCTTGATTCGCTTGACGCTGCTG”, the figure is -0.244 z-score.
Next, “CCGATTAACATCAGGAATTTACCTGATGTTAATCGGGTCTTGATTCGCTTGACGCTGCTG”: 0.97 z-score; “CCGATTAACATCAGGAAATATCCTGATGTTAATCGGGTCTTGATTCGCTTGACGCTGCTG”: -0.978 z-score.
As to “CCGATTAACATCAGGTTATTCCATGATGTTAATCGGGTCTTGATTCGCTTGACGCTGCTG”, the binding signal is 0.338 z-score.
For “CCGATTAACATCAAAAATTCCTATGATGTTAATCGGGTCTTGATTCGCTTGACGCTGCTG”, the binding signal was -0.143 z-score.
As for “CCGATTAACATCAAAATTTCCGCTGATGTTAATCGGGTCTTGATTCGCTTGACGCTGCTG”, the figure is 0.557 z-score.
As for “CCGATTAACATCAAAATTTCCGTTGATGTTAATCGGGTCTTGATTCGCTTGACGCTGCTG”, the binding signal is -0.159 z-score.
As for “CCGATTAACATCAGCGGAAATCCTGATGTTAATCGGGTCTTGATTCGCTTGACGCTGCTG”, the figure is 0.232 z-score; as for “CCGATTAACATCAGGACATTCCATGATGTTAATCGGGTCTTGATTCGCTTGACGCTGCTG”, -0.163 z-score.
Sequence “CCGATTAACATCAAACCCTACTGTGATGTTAATCGGGTCTTGATTCGCTTGACGCTGCTG” had a binding signal of 0.166 z-score.
Next, “CCGATTAACATCAGAGAAATTCCTGATGTTAATCGGGTCTTGATTCGCTTGACGCTGCTG”: 0.103 z-score; “CCGATTAACATCAAGTACTTTCCTGATGTTAATCGGGTCTTGATTCGCTTGACGCTGCTG”: -0.344 z-score; “CCGATTAACATCATGAAGACCCCTGATGTTAATCGGGTCTTGATTCGCTTGACGCTGCTG”: 2.6 z-score.
As for “CCGATTAACATCAGGAAATTTACTGATGTTAATCGGGTCTTGATTCGCTTGACGCTGCTG”, the figure is 0.528 z-score.
With “CCGATTAACATCAGAAATGCCCATGATGTTAATCGGGTCTTGATTCGCTTGACGCTGCTG”, the binding signal amounted to 0.848 z-score.
For “CCGATTAACATCATGTTGGGAAATGATGTTAATCGGGTCTTGATTCGCTTGACGCTGCTG”, the binding signal came to 1.02 z-score.
Next, “CCGATTAACATCAGGAAAAGTACTGATGTTAATCGGGTCTTGATTCGCTTGACGCTGCTG”: -0.0632 z-score.
Next, “CCGATTAACATCAGGAATCGCCCTGATGTTAATCGGGTCTTGATTCGCTTGACGCTGCTG”: 0.0938 z-score; “CCGATTAACATCATCCGCGGGAGTGATGTTAATCGGGTCTTGATTCGCTTGACGCTGCTG”: 1.05 z-score.
As for “CCGATTAACATCAAAAATATTCCTGATGTTAATCGGGTCTTGATTCGCTTGACGCTGCTG”, the figure is 0.061 z-score; as for “CCGATTAACATCAGAAATTACCATGATGTTAATCGGGTCTTGATTCGCTTGACGCTGCTG”, 0.803 z-score.
“CCGATTAACATCAGAAACTTTCCTGATGTTAATCGGGTCTTGATTCGCTTGACGCTGCTG” returned a binding signal of -0.499 z-score.
